# Laboratory results from PubChem BioAssay AID624173 (National Center for Advancing Translational Sciences (NCATS), 2012).
# In all, about 410,000 compounds went through this assay and about 490 (0.12%) were called active. The call rests on the fitted dose curve; in most records, active means well fitted inhibition curve with a large enough effect; inconclusive means small, poorly fitted or top-dose-only effect; inactive means flat fitted curve, though single readings scatter. Inconclusive means that the source gave no clear call. Potencies of inconclusive entries are doubtful fits and often do not repeat.
# Target: pyruvate kinase (Trypanosoma brucei) (UniProt Q57TT1)
# Test: qHTS of Trypanosoma Brucei Inhibitors; further: nearly all actives have a fitted effect of over 50% in size
# Details: TbPYK enzyme, Kinase-Glo Plus ATP luminescence, 45 min; series mostly up to 76.8 µM
# From the text: Members of the Trypanosomatidae family of parasitic protozoans cause a spectrum of diseases throughout the tropical and subtropical world. Sleeping sickness, caused by two subspecies of Trypanosoma brucei, is endemic to areas of sub-Saharan Africa, while Chagas' disease, a manifestation of Trypanosoma cruzi infection, is prevalent throughout Central and South America. In addition, many species of Leishmania are responsible for a range of cutaneous and visceral diseases, causing ulcers, destructive lesions and kalaazar, a lethal infection of the viscera. These diseases cause severe public health and economic burdens on populations that are often already caught in a tragic cycle of poverty, poor nutrition and disease. Collectively, parasites of the trypanosomatid family infect 30 million people worldwide (~500 million live in endemic areas), and account for ~130K deaths annually. […]
# 2 uL of TbPYK/substrate buffer (columns 1-3, 5-48) are dispensed into Greiner white solid bottom 1536-well assay plates; column 4 receives only TEA buffer as 0x TbPYK controls. […] Kinase-Glo Plus reagent is added (3 uL) and plates incubated for 10 minutes, before being transferred to a ViewLux high-throughput CCD imager (PerkinElmer) wherein single end-point measurements of luminescence are acquired using a clear filter. […]
# Potency means the concentration at half of the fitted maximal effect; tags describe the fitted curve by direction and shape.
row,Compound,Potency
1,O=C1NN(c2ccc(F)c(Cl)c2)C(=O)/C1=C\c1cccc(OC(=O)c2cccs2)c1,"inconclusive: 50.1 µM [inhibitor, single point]"
